Laboratory results as given in the RNAGym collection of RNA variant scans (doi:10.7554/elife.90254).
Read counts are not given, so values of variants with three or more changes are uncertain.

B1: LINE1-full (parent)
chain: UACGUAGGUGGUUUUCCCCUGAUAGUGCUAAGGGGGCCUGGAAGUUUGGACUGGGCAGAGCUCAACACAGCGUGGCAAAGUGGCUGUGGCUAGACUGCCUCUCUGGAUUCCUCGUCACUCAGCAGGGCAUCUCUGAGAGAAAUGCC

Variants of: B1
Assay: self-cleavage, relative activity (ratio to wild type); higher = more cleavage; in vitro, sequencing; the parent is a self-cleaving ribozyme

Row | Variant | self-cleavage
1 | U9C U52C A117G | 1.53
2 | U12G U46C U62C | 0.11
3 | U14C A67U C71A U112C | 0.06
4 | A57U U87G A117G | 0.04
5 | U45A G105U A121U C146U | 1.64
6 | U100C U102A A129G | 1.21
7 | U5C U26A U47A U62A A124U | 0.07
8 | U14C U20A U134C A141U | 1.02
9 | U39A A43G A57G | 0.43
10 | U5C C19A U20A A22G U130C | 0.22
11 | A59G A78G A138G | 0.18
12 | G27A A57G U87C | 0.1
13 | U5C U47C A69U | 0.3
14 | A57U A121G A136G | 0.16
15 | G4A U12C U15C U85C U143C | 0.35
16 | U1C U45C U46C C71U U85C | 0.08
17 | G33A A79G U143C | 0.5
18 | U13C U23C G32A | 1.78
19 | A22G G106A U134A A136C | 0.8
20 | A22G C28G U81A U134A | 0.95
21 | G33A U104G C145U | 0.61
22 | G27A A57G A79G A92G A141G | 0.23
23 | U1C U12G C116A U143C | 0.81
24 | U39C U52A C90U A94U U115G | 0.05

Row | Variant | self-cleavage
25 | U12G U15C U115A | 2.11
26 | U9C G35A U87C A94U A124U | 0.06
27 | U29C A129G U143C | 0.92
28 | U12A A24G G33A | 1.03
29 | A64C C76U U91C U102C | 0.21
30 | A31U A117C G144U | 1.14
31 | U20C G32U A43G C99A A107G U119A | 0.67
32 | U52A U62C U130C | 0.12
33 | A57U C76U U132C | 0.09
34 | A69G U81G U115C | 0
35 | U20C U47A G54A | 0.18
36 | G33U A50U U119A A142G | 1.19
37 | U15C U46C A79G | 2.45
38 | A57U A59G A94G | 0
39 | U13A C28A A42G A50G A141G | 0.4
40 | U12A C68U A107G A121U | 0.26
41 | U45C C71A A117U | 0.25
42 | U14G C18U A43G U45C U96A U115A | 0.08
43 | U14C A64G U112C | 0.5
44 | U5C U15A A22G A30G A67U U73C | 1.84
45 | A43G U46C A64G U100C | 0
46 | A2G U5C U15C A43G A57G | 0.48
47 | A67G U112C A124U U132C | 0.68
48 | C3U G11A U23C U130C | 0

Row | Variant | self-cleavage
49 | U20A A31G U109C U143C | 1.72
50 | U45C A140G A141U | 0.24
51 | U9C G58A U87A | 0.14
52 | U14C A79G U104A | 0.71
53 | U26A U112C C113U A129G | 0.23
54 | C19U A65U A77U G89C C128U | 0.03
55 | U13A A42G C113U | 0.46
56 | A42U G53A A142G | 0.79
57 | U119C A136G U143A | 2.12
58 | U29C A94G A107G A141G | 0
59 | U1C U15C G114A | 1.06
60 | A2G U14C U108C | 0.88
61 | A6G U96C U134C | 0.38
62 | G11A U29C A121C A141G | 1.07
63 | A22C U100A U115C | 1.17
64 | U46C U85A A138G | 0.25
65 | G58U G82A U143A | 0.05
66 | G32A U52C C84G U134C | 0.16
67 | U1C U14C G41A A67G A77G A140G | 0.31
68 | U39C A94G A138U | 0.22
69 | U13C G48U U104A | 1.54
70 | U26G A42G G144A | 1.6
71 | U20C U96C U119C | 0.63
72 | U26C A77G A78G U143C | 1.53

Row | Variant | self-cleavage
73 | U14C A22U U96A | 0.27
74 | U62C A117U A141G | 0.04
75 | U12C A64G G72A | 0.42
76 | U20G A24G A117G G126A | 1.39
77 | U12G U132A A136U | 1.16
78 | U23A U102C A121U A138U | 1.3
79 | C3A U9A A92G A117U A136G | 0.13
80 | U14A U46C A77U A121U | 1.21
81 | A42G U52A A94G U143C | 0.16
82 | A2G A59G A69U | 0
83 | G4A A22G A31C A129U | 1.28
84 | U14C A43G A65U | 0
85 | A24G U62C G80A U115A | 0.07
86 | U46A A59G U104C | 0.36
87 | U12C U14A U46C G83A U96C A129G A140U | 0.49
88 | U26C U87A U119C | 0.11
89 | U13C A50G C120U | 1.41
90 | A2G A22U U85C U96G | 0
91 | U20A U46C U91C C98U | 0.22
92 | G40A A77U A140G | 0.17
93 | G88C A107G A138U A142G | 0
94 | A2G C3U G41U U46C U47C A124G | 0.67
95 | G70C A107U G139A | 0.18
96 | A69U U112C A124G | 0

Row | Variant | self-cleavage
97 | G7A U96A U109A C113A | 0.03
98 | U20G A22U A124G | 1.87
99 | U14C U23A G60A U143A | 0.13
100 | A6G A42G U45A A124G | 1.25
101 | U14A G21A A129U C145U | 1.64
102 | U29A A65G G106U | 0.1
103 | A30U U62C U104C | 0
104 | A43U A64U G83U A142G | 0.13
105 | A79G G106C U108C C146U | 1.15
106 | C16U A67G A138G | 0.28
107 | A6G U20C G21U U39C U100C U102C U134A | 1.02
108 | C38U U115C A124C A141G | 1.67
109 | G10A A24C A64U U73G U85C U102C U112A | 0
110 | U14A A59G A77U | 0.09
111 | U15C A50G A138G | 1.38
112 | U13A U47C A69U A77U U96A U132A A141G | 0.01
113 | U85A U119G A141G | 0.05
114 | U13C U26A G127A | 0.48
115 | U9G C37U U85C U91C | 0
116 | U29C A67U U143C | 0.5
117 | A22G U62C A124U A136G | 0.3
118 | A24G U39C U73A A117G | 0.42
119 | A50U U73C U108C | 1.28
120 | U13C G41U A94U | 0.15

Row | Variant | self-cleavage
121 | U52G A69G U134C G135U | 0.77
122 | U45C C71A U73C A79G | 0.47
123 | A6G U73A U112A | 1.23
124 | U23C G25A G33A A65G | 0.11
125 | U46C U73C A78U U100A A117C | 1.84
126 | G10A U20C A78G C113A | 1.43
127 | C101U U109A U130C | 1.87
128 | A59U U119A C145U | 0.93
129 | C17A A22G U62C | 0.25
130 | U26C A69G U104C C123G A136G | 1.02
131 | U9C A22G U47C A65G | 0
132 | A2G U20A A69U | 0.33
133 | A77G U85C U87A G106A U119C | 0.1
134 | A79G C113A U134C | 0.82
135 | A42G C56A U112C | 0.04
136 | G55A U108C C113U | 0.28
137 | G41U G97A U132C | 0.03
138 | U20A U39A A92G | 0.13
139 | U20A A77U U115A | 1.24
140 | U12G C56G U108G | 0.21
141 | U14A U47A A67U A140G | 0.06
142 | U1A A31C A59G A77G | 0.68
143 | A2G U23C G72A A78G A136G | 1.24
144 | U1C U13C G35U U52A C63U | 0.36

Row | Variant | self-cleavage
145 | A30U U73A U91C U96A G114A | 0.01
146 | A6G C38A A67G | 1.16
147 | A65G A77U U112C | 0.11
148 | U12C A129G A136U | 2.69
149 | A77G A78G A107G | 1.36
150 | U52A A59U A140G | 0.31
151 | A24U C131U A141G A142G | 1.26
152 | A2G U13C U119C A124G A129G | 1.15
153 | A6U A31G U112A | 1.02
154 | G32A U47A A124U | 0.88
155 | U52A A69G A138U | 0.4
156 | G7A A50U U73C | 1.38
157 | A42G U45C A78G U130A | 0.84
158 | A31G A50G A77U A136G | 0.26
159 | A57G A59U U109C A124U A138G | 0
160 | G55A U85A U102C U108C | 0.02
161 | U9C A94G G105A | 0.4
162 | U26A C76A A141G | 1.53
163 | U26A A65U U108C A121G | 0
164 | U26C A57G A79G A121G | 1.15
165 | A24U U39A A136U | 1.31
166 | A2G U87A C133U | 0.13
167 | U46A A50G U100C | 0
